# Laboratory results reported in the supplement of paper PMC8728848.
# The other results are listed elsewhere or left out.
# B1: Surfactant Protein D (Human); Neck + Carbohydrate Recognition Domain (NCRD) (Homo sapiens) (protein)
# chain: MLLFLLSALVLLTQPLGYLEAEMKTYSHRTMPSACTLVMCSSVESGLPGRDRDGREGPRGEKGDPGLPGAAGQAGMPGQAGPVGPKGDNGSVGEPGPKGDTGPSGPPGPPGVPGPAGREGALGKQGNIGPQGKPGPKGEAGPKGEVGAPGMQGSAGARGLAGPKGERGVPGERGVPGNTGAAGSAGAMGPQGSPGARGPPGLKGDKGIPGDKGAKGESGLPDVASLRQQVEALQGQVQHLQAAFSQYKKVELFPNGQSVGEKIFKTAQFVKPFTEAQLLCTQAGGQLASPRSAAENAALQQLVVAKNEAAFLSMTDSKTEGKFTYPTGESLVYSNWAPGEPNDDGGSADCVEIFTNGKWNDRACGAKRLVVCEF
# Experiments:
# Test in all cases: glycan array binding signal (z-score within array); higher = stronger binding
# Settings in all cases: glycan notation: IUPAC condensed, linker removed; mutation: E347A
# Fuc(a1-2)Gal = target: Fuc(a1-2)Gal
# Method in brief: (§1)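 Glycan array binding is given as a within-array Z-score, which can be read as non-binding when negative. The arrays, 3228 of them, came from the Consortium for Functional Glycomics database and were retained only where the protein sequence was available. Z-scores were averaged across arrays of the same protein sequence at different concentrations or buffers and across linkers.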
# Fuc(a1-2)Gal(b1-3)GalNAc = target: Fuc(a1-2)Gal(b1-3)GalNAc
# Method in brief: as §1
# [1] = target: Fuc(a1-2)Gal(b1-3)GalNAc(b1-3)Gal
# Method in brief: as §1
# [2] = target: Fuc(a1-2)Gal(b1-3)GalNAc(b1-3)Gal(a1-4)Gal(b1-4)Glc
# Method in brief: as §1
# [3] = target: Fuc(a1-2)Gal(b1-3)GalNAc(b1-4)[Neu5Ac(a2-3)]Gal(b1-4)Glc
# Method in brief: as §1
# Fuc(a1-2)Gal(b1-3)GlcNAc = target: Fuc(a1-2)Gal(b1-3)GlcNAc
# Method in brief: as §1
# [4] = target: Fuc(a1-2)Gal(b1-3)GlcNAc(b1-3)Gal(b1-4)Glc
# Method in brief: as §1
# [5] = target: Fuc(a1-2)Gal(b1-3)[Fuc(a1-4)]GlcNAc
# Method in brief: as §1
# Fuc(a1-2)Gal(b1-4)Glc = target: Fuc(a1-2)Gal(b1-4)Glc
# Method in brief: as §1
# Fuc(a1-2)Gal(b1-4)Glc6S = target: Fuc(a1-2)Gal(b1-4)Glc6S
# Method in brief: as §1
# Fuc(a1-2)Gal(b1-4)GlcNAc = target: Fuc(a1-2)Gal(b1-4)GlcNAc
# Method in brief: as §1
# [6] = target: Fuc(a1-2)Gal(b1-4)GlcNAc(b1-3)Gal(b1-4)GlcNAc
# Method in brief: as §1
# [7] = target: Fuc(a1-2)Gal(b1-4)GlcNAc(b1-3)Gal(b1-4)GlcNAc(b1-3)Gal(b1-4)GlcNAc
# Method in brief: as §1
# [8] = target: Fuc(a1-2)Gal(b1-4)GlcNAc6S
# Method in brief: as §1
# [9] = target: Fuc(a1-2)Gal(b1-4)[Fuc(a1-3)]GlcNAc
# Method in brief: as §1
# [10] = target: Fuc(a1-2)Gal(b1-4)[Fuc(a1-3)]GlcNAc(b1-3)Gal(b1-4)[Fuc(a1-3)]GlcNAc
# Method in brief: as §1
# [11] = target: Fuc(a1-2)Gal(b1-4)[Fuc(a1-3)]GlcNAc(b1-3)Gal(b1-4)[Fuc(a1-3)]GlcNAc(b1-3)Gal(b1-4)[Fuc(a1-3)]GlcNAc
# Method in brief: as §1
# Fuc(a1-2)Gal6S(b1-4)Glc = target: Fuc(a1-2)Gal6S(b1-4)Glc
# Method in brief: as §1
# [12] = target: Fuc(a1-2)Gal6S(b1-4)Glc6S
# Method in brief: as §1
# [13] = target: Fuc(a1-2)Gal6S(b1-4)GlcNAc
# Method in brief: as §1
# Fuc(a1-2)[Gal(a1-3)]Gal = target: Fuc(a1-2)[Gal(a1-3)]Gal
# Method in brief: as §1
# [14] = target: Fuc(a1-2)[Gal(a1-3)]Gal(b1-3)GlcNAc
# Method in brief: as §1
# [15] = target: Fuc(a1-2)[Gal(a1-3)]Gal(b1-4)Glc
# Method in brief: as §1
# [16] = target: Fuc(a1-2)[Gal(a1-3)]Gal(b1-4)GlcNAc
# Method in brief: as §1
# [17] = target: Fuc(a1-2)[Gal(a1-3)]Gal(b1-4)[Fuc(a1-3)]GlcNAc
# Method in brief: as §1
# [18] = target: Fuc(a1-2)[Gal(a1-4)]Gal(b1-4)GlcNAc
# Method in brief: as §1
# [19] = target: Fuc(a1-2)[GalNAc(a1-3)]Gal
# Method in brief: as §1
# [20] = target: Fuc(a1-2)[GalNAc(a1-3)]Gal(b1-3)GlcNAc
# Method in brief: as §1
# [21] = target: Fuc(a1-2)[GalNAc(a1-3)]Gal(b1-4)Glc
# Method in brief: as §1
# [22] = target: Fuc(a1-2)[GalNAc(a1-3)]Gal(b1-4)GlcNAc
# Method in brief: as §1
binder,measurement,setting,value
B1,glycan array binding signal (z-score),Fuc(a1-2)Gal,-0.186
same,glycan array binding signal (z-score),Fuc(a1-2)Gal(b1-3)GalNAc,-0.187
same,glycan array binding signal (z-score),[1],-0.306
same,glycan array binding signal (z-score),[2],-0.23
same,glycan array binding signal (z-score),[3],-0.102
same,glycan array binding signal (z-score),Fuc(a1-2)Gal(b1-3)GlcNAc,-0.427
same,glycan array binding signal (z-score),[4],-0.459
same,glycan array binding signal (z-score),[5],-0.222
same,glycan array binding signal (z-score),Fuc(a1-2)Gal(b1-4)Glc,-0.456
same,glycan array binding signal (z-score),Fuc(a1-2)Gal(b1-4)Glc6S,-0.298
same,glycan array binding signal (z-score),Fuc(a1-2)Gal(b1-4)GlcNAc,-0.224
same,glycan array binding signal (z-score),[6],-0.078
same,glycan array binding signal (z-score),[7],-0.055
same,glycan array binding signal (z-score),[8],0.153
same,glycan array binding signal (z-score),[9],-0.389
same,glycan array binding signal (z-score),[10],-0.185
same,glycan array binding signal (z-score),[11],-0.128
same,glycan array binding signal (z-score),Fuc(a1-2)Gal6S(b1-4)Glc,0.173
same,glycan array binding signal (z-score),[12],0.34
same,glycan array binding signal (z-score),[13],0.162
same,glycan array binding signal (z-score),Fuc(a1-2)[Gal(a1-3)]Gal,-0.261
same,glycan array binding signal (z-score),[14],-0.243
same,glycan array binding signal (z-score),[15],-0.168
same,glycan array binding signal (z-score),[16],-0.076
same,glycan array binding signal (z-score),[17],-0.107
same,glycan array binding signal (z-score),[18],-0.321
same,glycan array binding signal (z-score),[19],-0.056
same,glycan array binding signal (z-score),[20],-0.299
same,glycan array binding signal (z-score),[21],-0.269
same,glycan array binding signal (z-score),[22],-0.183
